Measured values reported in article PMC4336329 (PLoS ONE, 2015).
Out of some 310,000 compounds screened, about 14,000 (4.5%) showed an effect of 50% or more. Effects have a minus sign here. The list shows a part of the results.

What follows are compounds tested against human ether-à-go-go-related gene (hERG) potassium channel (human, UniProt Q12809) (assay: primary screen, population patch clamp on CHO cells stably expressing hERG).
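Note: peak tail current of the secondary pulse compared with the same well before compound.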

Chain of human ether-à-go-go-related gene (hERG) potassium channel (Q12809 whole entry, looked up): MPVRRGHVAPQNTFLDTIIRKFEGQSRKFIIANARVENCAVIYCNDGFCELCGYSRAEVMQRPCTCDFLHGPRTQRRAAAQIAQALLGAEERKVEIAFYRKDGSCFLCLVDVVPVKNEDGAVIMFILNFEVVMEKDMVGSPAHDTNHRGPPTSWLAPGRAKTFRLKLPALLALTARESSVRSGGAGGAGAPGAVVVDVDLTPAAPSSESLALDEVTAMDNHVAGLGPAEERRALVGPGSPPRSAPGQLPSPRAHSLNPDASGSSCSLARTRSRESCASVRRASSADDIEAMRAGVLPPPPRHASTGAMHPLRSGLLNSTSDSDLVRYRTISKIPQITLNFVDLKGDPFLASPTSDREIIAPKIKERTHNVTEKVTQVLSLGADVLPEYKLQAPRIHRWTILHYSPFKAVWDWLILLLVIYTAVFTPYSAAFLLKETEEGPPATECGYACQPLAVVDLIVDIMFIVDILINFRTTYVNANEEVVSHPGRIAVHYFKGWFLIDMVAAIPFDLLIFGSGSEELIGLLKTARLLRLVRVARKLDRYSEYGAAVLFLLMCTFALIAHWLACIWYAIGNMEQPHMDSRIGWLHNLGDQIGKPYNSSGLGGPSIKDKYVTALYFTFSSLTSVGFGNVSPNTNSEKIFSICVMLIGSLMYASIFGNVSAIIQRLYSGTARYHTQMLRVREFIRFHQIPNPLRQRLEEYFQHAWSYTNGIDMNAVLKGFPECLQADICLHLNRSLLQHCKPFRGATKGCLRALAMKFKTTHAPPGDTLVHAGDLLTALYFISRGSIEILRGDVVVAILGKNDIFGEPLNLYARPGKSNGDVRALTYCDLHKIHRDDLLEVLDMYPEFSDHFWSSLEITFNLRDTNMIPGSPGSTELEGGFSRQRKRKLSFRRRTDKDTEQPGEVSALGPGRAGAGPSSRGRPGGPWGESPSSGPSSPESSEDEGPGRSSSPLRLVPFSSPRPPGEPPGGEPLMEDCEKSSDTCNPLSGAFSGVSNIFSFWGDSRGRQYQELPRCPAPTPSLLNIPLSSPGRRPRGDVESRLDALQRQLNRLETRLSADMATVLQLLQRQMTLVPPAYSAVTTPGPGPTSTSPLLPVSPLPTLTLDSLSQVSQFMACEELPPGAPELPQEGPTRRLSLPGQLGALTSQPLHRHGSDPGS

| SMILES | hERG current change (%, negative = inhibition) at 10uM [%] |
| --- | --- |
| CCC1Oc2ccc(Cl)cc2N(CC(=O)O)C1=O (stereo not shown) | -10.1 |
| O=C1Cn2c(nc3ccccc32)-c2ccccc2N1 | 0.249 |
| O=C1c2ccccc2C(=O)N1SC1CCCCC1 | 30.3 |
| CS(=O)(=O)N1CCC(C(=O)N2CCN(c3ccccc3)CC2)CC1 | 17.1 |
| O=C(NC1CCN(Cc2ccccc2)CC1)c1ccccc1Cl | 1.15 |
| COC(=O)C1=C(c2cc3ccccc3o2)C[C@@H]2CC[C@H]1N2C(=O)N1CCC(O)CC1 | 0.432 |
| C=CCNC(=O)/C(C#N)=C/c1ccc(C(=O)O)cc1 | 13.6 |
| O=C(Nc1ccc(C(=O)NCC2CCN(Cc3ccccc3F)CC2)cc1)C1=CSCCO1 | -9.04 |
| COc1cccc(-c2nc(NCc3cccnc3)c3ccccc3n2)c1O | 13.7 |
| CCOc1ccc(NC(=O)N(C2CCCCC2)C2CCN(C(C)=O)CC2)cc1 | -7.04 |
| CN1CCN(C(=O)C2=C[C@@H](c3ccc4c(c3)OCO4)C[C@@H](OCc3ccc(CO)cc3)O2)CC1 | -17 |
| COc1ccc(-c2cc(C(=O)NC(C)c3ccccn3)c3ccccc3n2)cc1OC (stereo not shown) | -4.89 |
| O=C(OC1CCS(=O)(=O)c2sccc21)c1ccccc1 (stereo not shown) | -7.52 |
| Cc1cc(C)cc(NS(=O)(=O)c2ccc(NC(=O)C3CCCCC3C(=O)O)cc2)c1 (stereo not shown) | 2.18 |
| Cn1ccnc1SCc1ccc(Cl)cc1Cl | 2.42 |
| O=C(Cn1cnc2cc([N+](=O)[O-])ccc2c1=O)Nc1ccccc1Cl | -1.06 |
| O=C1c2ccccc2C(=O)N1C1CCCCC1 | 29.8 |
| O=S(=O)(c1ccc(Oc2ccc(-c3nnco3)cc2)nc1)N1CCC(Cc2ccccc2)CC1 | 0.174 |
| O=C(O)c1ccc(S(=O)(=O)c2ccc3c(c2)C(=O)N(c2ccc(O)cc2)C3=O)cc1 | 11.3 |
| O=C(CN1CCOCC1)N/N=C/c1c(O)ccc2ccccc12 | 3.49 |
| O=C1NC(=S)N/C1=C\c1ccc(Oc2ccc(C(F)(F)F)cc2[N+](=O)[O-])c(Cl)c1 | 12.9 |
| CCN(CC)S(=O)(=O)c1ccc(S(=O)(=O)N2CCCC2)cc1 | 1.61 |

| SMILES | hERG current change (%, negative = inhibition) at 10uM [%] |
| --- | --- |
| CCN(CC)C(=O)Cn1c(=O)c2ccccc2n2c(=S)sc(-c3cccc(C)c3)c12 | 19.4 |
| CCOC(=O)c1ccc(S(=O)(=O)N2CCN(C(=O)c3cc(=O)c4ccccc4o3)CC2)cc1 | -38.2 |
| O=C1C2C3C=CC(C3)C2C(=O)N1c1ccncc1 (stereo not shown) | 4.4 |
| CCc1ccc(NC(=O)c2c(C(=O)Nc3ccccc3)sc3nc(C)cc(=O)n23)cc1 | 16.4 |
| COc1cccc(C2NC(=O)c3ccccc3O2)c1OCc1ccccc1F (stereo not shown) | 2.09 |
| CC(=O)Nc1ccc(NC(=O)C(C)OC(=O)C2CCN(S(=O)(=O)c3cccs3)CC2)cc1 (stereo not shown) | -2.1 |
| CCCCN(C(=O)C1=COCCO1)c1c(N)n(CCC)c(=O)[nH]c1=O | 12.1 |
| COc1cccc(NC(=O)c2ccc3c(c2)CCN3S(C)(=O)=O)c1 | 3.4 |
| O=C(Nc1ccnn1C1CCN(C/C=C/c2ccccc2)CC1)c1ccccc1Cl | -83.8 |
| Cc1ccc(NC(=O)CCS(=O)(=O)c2cccc3nonc23)c(Cl)c1 | 7.04 |
| Cc1ccc(NC(=O)Cn2ccsc2=N)cc1S(=O)(=O)N(C)C.Cl | -13.4 |
| CC(OC(=O)c1ccccc1NCCO)C(=O)Nc1ccc(S(=O)(=O)N2CCOCC2)cc1 (stereo not shown) | 5.98 |
| C=C(C)c1cccc(C(C)(C)NC(=O)N2CCC(C(N)=O)CC2)c1 | 24.8 |
| CCN(C(=O)c1ccco1)c1nc(-c2ccc(OC)cc2)cs1 | 8.13 |
| CCCS(=O)(=O)c1c(S(=O)(=O)CCC)c2c(N)cccn2c1C(=O)c1ccc(F)cc1 | -7.47 |
| CCOc1ccc(C(=O)/C=C/c2ccc(SC)cc2)cc1 | -4.39 |
| O=C(O)CCCN1C(=O)C2C3CC(C2C1=O)C1C(c2ccccc2)c2sc(=O)[nH]c2SC31 (stereo not shown) | 7.77 |
| COc1nc(C)nc(C)c1Oc1ccc(Cl)cc1Cl | 10.2 |
| CC(=O)Nc1cccc(C(=O)/C=C/c2ccc(F)cc2)c1 | -31.1 |
| COC(=O)CSc1nnc(CNC(=O)c2cccc(C)c2)n1-c1ccccc1OC | 10.8 |
| COc1ccc(C)cc1S(=O)(=O)NCC(c1ccc2c(c1)OCO2)N1CCOCC1 (stereo not shown) | -13.6 |
| O=C(/C=C/c1ccc2c(c1)OCO2)Nc1nc2ccccc2s1 | -5.67 |

| SMILES | hERG current change (%, negative = inhibition) at 10uM [%] |
| --- | --- |
| CC(C)Sc1nc2c(c(=O)n1C)SC(C)C2 (stereo not shown) | -15.8 |
| Cc1ccc(C)c(NC(=O)c2ccc3ccccc3n2)c1 | -8.34 |
| Cc1ccn2c(=O)nc(SCC(=O)N3CCCC3)nc2c1 | 1.53 |
| CCC(C)(C)C1CCc2c(sc(N)c2C(N)=O)C1 (stereo not shown) | -40.7 |
| CCC1(c2ccc(F)cc2)NC(=O)N(CC(=O)Nc2cccc(S(=O)(=O)N3CCCCC3)c2)C1=O (stereo not shown) | 7.13 |
| CNC(=S)NNC(=O)c1cccs1 | 7.92 |
| CC(O)c1n(C)c(Cl)c[n+]1C.[I-] (stereo not shown) | 4.19 |
| O=C(CN1C(=O)NC(c2ccccc2)(c2ccccc2)C1=O)NC1CCS(=O)(=O)C1 (stereo not shown) | 5.23 |
| COCCN(C(=O)COC(=O)CCOc1ccccc1C)c1c(N)n(Cc2ccccc2)c(=O)[nH]c1=O | 2.58 |
| CSc1nc(N)nc(SCC(=O)Nc2cccc(F)c2)c1C#N | 10.8 |
| Oc1c(I)cc(Cl)c2cccnc12 | 16.6 |
| Cc1c(/C=N\NC(=O)c2c[nH]c3ccccc23)cnn1C | 7.42 |
| COc1cc(-c2cc(C(=O)Nc3nc4ccccc4s3)c3ccccc3n2)cc(OC)c1OC | 35.9 |
| CCOc1ccc(NC(c2ccccc2)P(=O)(OC)OC)cc1 (stereo not shown) | 8.49 |
| COc1ccccc1OCCNC(=O)c1cc(F)c(F)cc1Cl | -2.68 |
| COC(=O)CNC(=O)C(NC(=O)c1ccc(Cl)cc1)C(C)C (stereo not shown) | 11.7 |
| NC(=O)COc1ccc(-n2cnnn2)cc1 | 32.4 |
| Cc1ccc(NC(=S)c2ccncc2)cc1 | 4.34 |
| COc1ccc(Cl)cc1NC(=O)C/C(C)=N/NC(=O)c1ccccc1[N+](=O)[O-] | -2.05 |
| COC(=O)C1C(=O)OC(C)(C)C1C(C)C(=O)c1ccc(C)cc1C (stereo not shown) | 2.5 |
| O=c1cc(CN2CCN(c3ccccc3)CC2)c2c(ccc3ccccc32)o1 | -34 |
| COc1ccc(CNC(=O)C(=O)NCC(c2ccco2)N2CCOCC2)cc1 (stereo not shown) | 0.899 |

| SMILES | hERG current change (%, negative = inhibition) at 10uM [%] |
| --- | --- |
| Cc1cccc(C(=O)c2c(N)sc3c2CCC(C)C3)c1 (stereo not shown) | 2.78 |
| CN(N)c1ccc2c(C(F)(F)F)cc(C(F)(F)F)nc2n1 | 12.8 |
| COCc1ccc([C@@H]2C[C@H]3CN(Cc4cccc(Cl)c4)C(=O)[C@]34CCCN24)o1 | -31 |
| COc1ccc(C(=O)NCC(=O)OCc2nc(N)nc(Nc3ccccc3C)n2)cc1 | -40.1 |
| CCCN1CCN(CCCNC(=O)c2ccc(CS(=O)c3ccc(OC)cc3)o2)CC1 (stereo not shown) | 6.98 |
| COc1ccc(CC2(CO)CCN(Cc3ccc(OC(F)(F)F)cc3)CC2)cc1 | -75.1 |
| COc1cccc(CNC(=O)CN2C(=O)CSc3ccc(S(=O)(=O)N4CCCCC4)cc32)c1 | -27.8 |
| Cc1cccn2c(=O)c3cc(C(=O)NCCN4CCOCC4)c(=N)n(Cc4ccc(F)cc4)c3nc12 | -72.9 |
| CC1=CC(=C(C#N)c2nc3ccccc3s2)C=C(C)N1c1ccc(F)cc1F | 13.3 |
| CC(=O)c1c(C)[nH]c(C(=O)N2CCN(c3ncccn3)CC2)c1C | 2.83 |
| CC(O)CCC(=O)NNC1CC(=O)N(c2ccccc2)C1=O (stereo not shown) | 10.1 |
| Cc1ccccc1C(=O)NCCCc1ccccc1 | 12.5 |
| OCCNc1nc(Nc2ccccc2C(F)(F)F)nc(N2CCCC2)n1 | -18.7 |
| O=C(Nc1nccs1)c1cccc(NC(=O)c2ccco2)c1 | -7.4 |
| Cc1ccc(NC(=O)c2cc(NC(=O)C3CC=CCC3C(=O)O)ccc2N2CCOCC2)cc1Cl (stereo not shown) | 0.444 |
| O=[N+]([O-])c1ccc(N/N=C/c2ccccc2)cc1 | 10.1 |
| CCN1C(=O)CC(N2CCN(c3ccc(Cl)cc3)CC2)C1=O (stereo not shown) | -14 |
| O=C(CN1C(=O)COc2ccccc21)N(Cc1cccnc1)Cc1cccc(F)c1 | -33.8 |
| Cc1cccnc1NC(=O)CCc1nnc2ccc(N3CCC4(CC3)OCCO4)nn12 | 15.3 |
| CNCC(O)C(O)C(O)C(O)CO (stereo not shown) | -0.427 |
| CCCC(=O)NC(c1cccs1)c1cc([N+](=O)[O-])c2cccnc2c1O (stereo not shown) | 3.65 |
| Cc1ccc(C(C)NC(=O)c2cc(C)oc2C)cc1 (stereo not shown) | -14.2 |
